Measured values: PubChem BioAssay AID720507 (National Center for Advancing Translational Sciences (NCATS), 2013)
The whole screen tested about 2,300 compounds, of which about 140 (6.1%) were called active. The shares of active, inactive and inconclusive entries below differ from those in the screen. The call rests on the fitted dose curve; in most records, active means well fitted activation curve with a large enough effect; inconclusive means small, poorly fitted or top-dose-only effect; inactive means flat fitted curve, though single readings scatter. Potencies of inconclusive entries are left out as doubtful fits.

target: D(2) dopamine receptor (Homo sapiens) (UniProt P14416); assay: qHTS of D3 Dopamine Receptor Agonist: D2 Dopamine Receptor B-arrestin Agonist Counterscreen; conditions: DiscoveRx PathHunter D2 beta-arrestin, luminescence, 90 min; series mostly up to 76.9 µM; further: nearly all actives have a fitted effect of over 70% in size
Procedure, shortened: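 DiscoveRx D2 β-arrestin cells plated overnight at 37 deg C, 5% CO2, then exposed to compounds or dopamine control for 90 minutes at 37 deg C. Detection reagent added; luminescence read after 1 hour at ambient temperature.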
Potency means the concentration at half of the fitted maximal effect; tags describe the fitted curve by direction and shape.

UniProt P14416, sequence (P14416 whole entry, looked up): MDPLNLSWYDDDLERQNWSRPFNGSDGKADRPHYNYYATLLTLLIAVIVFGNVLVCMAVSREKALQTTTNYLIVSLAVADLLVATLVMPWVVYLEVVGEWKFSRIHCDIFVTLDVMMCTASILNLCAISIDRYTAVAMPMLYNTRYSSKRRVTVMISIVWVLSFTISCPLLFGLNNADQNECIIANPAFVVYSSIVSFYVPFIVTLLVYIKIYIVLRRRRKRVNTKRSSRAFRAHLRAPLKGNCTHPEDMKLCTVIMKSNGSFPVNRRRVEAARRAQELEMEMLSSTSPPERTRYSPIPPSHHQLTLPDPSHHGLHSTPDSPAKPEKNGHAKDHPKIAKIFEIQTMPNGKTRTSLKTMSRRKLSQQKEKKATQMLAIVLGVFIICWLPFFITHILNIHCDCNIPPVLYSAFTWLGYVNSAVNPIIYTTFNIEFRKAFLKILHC

With `COc1ccc(CN2CCN(C(=O)c3ccco3)CC2)cc1OCc1ccccc1` as the molecule, how does the Potency read?
Its Potency is active: 17.8 µM.

For `Cc1cc(NC(=O)CSCC(=O)Nc2cc(Cl)ccc2N2CCN(C)CC2)no1`, which Potency is on record?
Its Potency is “inactive”.

`O=S(=O)(Cc1ccccc1)N1CCC(N2CCN(c3ccccc3)CC2)CC1` was tested. Which Potency did it give?
The Potency was inconclusive [activator, partial curve].

How did the Potency turn out when `Cc1ccccc1C(=O)O/N=C(\c1ccccc1)c1ccccn1` was run?
Its Potency is inconclusive [activator, partial curve].

`Cc1nc(SCc2ccccc2)c([N+](=O)[O-])[nH]1` was tested. Which Potency did it give?
The Potency was “inactive”.

With `COc1ccc(NC(=O)c2ccc(CN3CCN(c4ccccc4)CC3)cc2)cc1` as the molecule, how does the Potency read?
Its Potency is active: 14.1 µM.

How did the Potency turn out when `O=C(N[C@H]1CCC(=O)N(CCSc2ccc(Br)cc2)CC1)OCc1ccccc1` was run?
The Potency was “inactive”.

For `CC(NCc1ccccc1)C1COc2ccccc2O1` (stereo unspecified), which Potency is on record?
Its Potency is “inactive”.

With `CCOC(=O)C1(Cc2cccc(OC)c2)CCN(Cc2cnc(SC)nc2)CC1` as the molecule, how does the Potency read?
The Potency was inconclusive [activator, partial curve, poor fit].

For `COc1cc(CC(=O)Nc2ccc3nc(C)sc3c2)cc(OC)c1OC`, which Potency is on record?
Its Potency is “inactive”.

How did the Potency turn out when `CC1(C)C(C=C(Cl)Cl)C1C(=O)N1CCN(Cc2ccccc2)CC1` (stereo unspecified) was run?
Its Potency is active: 17.8 µM.

`Nc1nc(CN2CCN(c3ccccc3)CC2)nc(N2CCCc3ccccc32)n1` was tested. Which Potency did it give?
Its Potency is inconclusive [activator, full curve, poor fit].

For `O=C(CN1CCN(c2ccc(O)cc2)CC1)Nc1ccc2c(c1)OCCCO2`, which Potency is on record?
Its Potency is active: 35.5 µM.

Which Potency does the source give for `Cc1c(C(=O)N2CCN(Cc3ccc4c(c3)OCO4)CC2)sc2ncnc(N3CCN(c4ccccc4F)CC3)c12` here?
Its Potency is inconclusive [activator, full curve].

`Cc1cc(C)c2c(=O)n(CC(=O)NCCCN3CCN(c4ccccc4F)CC3)sc2n1` was tested. Which Potency did it give?
Its Potency is “inactive”.

Which Potency does the source give for `O=C(NCCCN1CCN(c2ccccc2F)CC1)C1CC(=O)N(C2CCCC2)C1` (stereo unspecified) here?
The Potency was inconclusive [activator, full curve, poor fit].

How did the Potency turn out when `O=C(NCCOC(=O)c1ccc(C(=O)OCCNC(=O)c2cccnc2)s1)c1cccnc1` was run?
Its Potency is “inactive”.

For `Brc1ccc(CN2CCN(c3ccccc3)CC2)o1`, which Potency is on record?
Its Potency is “inactive”.

How did the Potency turn out when `O=C(c1cccs1)N1CCC(C(=O)N2CCN(Cc3ccc4c(c3)OCO4)CC2)CC1` was run?
Its Potency is inconclusive [activator, full curve].

With `CCc1ccc(OCC(O)CN2CCN(c3ccccn3)CC2)cc1` (stereo unspecified) as the molecule, how does the Potency read?
Its Potency is inconclusive [activator, full curve].

With `COc1ccccc1Oc1ccc(S(=O)(=O)N2CCOCC2)cc1S(=O)(=O)N1CCOCC1` as the molecule, how does the Potency read?
The Potency was “inactive”.

Which Potency does the source give for `Cn1c(C(=O)O)c(CC(=O)NCC2COc3ccccc3O2)c2ccccc21` (stereo unspecified) here?
The Potency was inconclusive [activator, full curve, poor fit].

How did the Potency turn out when `O=[N+]([O-])c1ccc(OCC(O)CN2CCN(c3ccccc3F)CC2)cc1` (stereo unspecified) was run?
Its Potency is inconclusive [activator, partial curve].

`COc1ccc([C@H](C)NC[C@H](O)c2ccc(O)c(NC=O)c2)cc1` was tested. Which Potency did it give?
Its Potency is “inactive”.

How did the Potency turn out when `COc1ccccc1CNCC(=O)Nc1cc(S(=O)(=O)N2CCOCC2)ccc1Cl` was run?
The Potency was inconclusive [activator, partial curve].

For `Cc1ccc(Nc2nc(N)nc(CN3CCN(C(=O)c4ccco4)CC3)n2)cc1Cl`, which Potency is on record?
The Potency was inconclusive [activator, full curve, poor fit].

How did the Potency turn out when `S=C(Nc1ccccc1)N1CCN(c2ccccn2)CC1` was run?
Its Potency is “inactive”.

`O=C(CSc1ncn[nH]1)N1N=C2/C(=C/c3ccccc3)CCCC2C1c1ccccc1` (stereo unspecified) was tested. Which Potency did it give?
The Potency was inconclusive [activator, full curve].

How did the Potency turn out when `COc1cccc(CC(=O)OCC(=O)N(C)CC(=O)Nc2ccccc2Cl)c1` was run?
Its Potency is “inactive”.

For `COc1ccc(NC(=O)CCN2CCN(c3ccccc3F)CC2)c(OC)c1`, which Potency is on record?
The Potency was inconclusive [activator, full curve].

`CCOc1ccc(NC(=O)NCCN2CCN(c3ccccc3F)CC2)cc1` was tested. Which Potency did it give?
The Potency was inconclusive [activator, partial curve, poor fit].

For `COc1cccc(CN2CCN(c3ncccn3)CC2)c1OC`, which Potency is on record?
The Potency was inconclusive [activator, full curve].

For `COc1cccc(CN2CCN(C3CCN(c4cccc(C)c4C)CC3)CC2CCO)c1` (stereo unspecified), which Potency is on record?
Its Potency is inconclusive [activator, full curve].

With `Cc1cccc(C)c1OCC(O)CN1CCN(c2ccccc2)CC1` (stereo unspecified) as the molecule, how does the Potency read?
Its Potency is inconclusive [activator, full curve].

For `CCS(=O)(=O)N1CCC(C(=O)NCCCN2CCN(c3ccccc3F)CC2)CC1`, which Potency is on record?
The Potency was inconclusive [activator, full curve].

Which Potency does the source give for `O=C(NCC(c1ccco1)N1CCN(c2ccccc2)CC1)c1ccco1` (stereo unspecified) here?
Its Potency is inconclusive [activator, full curve].

`Cc1ccc(C(=O)OC(C)C(=O)NC(C)CCc2ccccc2)o1` (stereo unspecified) was tested. Which Potency did it give?
Its Potency is “inactive”.

For `COc1ccccc1CN(C)C(=O)CN1CCN(C(=O)c2cccs2)CC1`, which Potency is on record?
The Potency was inconclusive [activator, full curve].

How did the Potency turn out when `Cc1ccc(S(=O)(=O)N2CCOCC2)cc1NC(=O)CNCC1CCCCC1` was run?
Its Potency is inconclusive [activator, full curve].

For `Nc1nc(CN2CCN(c3ccccc3F)CC2)nc(Nc2ccc3c(c2)OCCO3)n1`, which Potency is on record?
The Potency was inconclusive [activator, full curve].

How did the Potency turn out when `Nc1c(C(=O)CSc2n[nH]c(-c3ccccc3)n2)c(=O)[nH]c(=O)n1C1CC1` was run?
The Potency was “inactive”.

Which Potency does the source give for `O=C(NCCN1CCN(c2cccc(Cl)c2)CC1)C1CCCN(S(=O)(=O)c2cnc[nH]2)C1` (stereo unspecified) here?
The Potency was inconclusive [activator, partial curve].

`COc1ccccc1NC(=O)C(C)OC(=O)C(C)SCC(=O)Nc1ccc(C)cc1` (stereo unspecified) was tested. Which Potency did it give?
Its Potency is “inactive”.

For `CC1(C)O[C@@H]2[C@H](O1)[C@@H](CO)O[C@H]2n1cnc2c(=O)[nH]cnc21`, which Potency is on record?
The Potency was “inactive”.

How did the Potency turn out when `COc1ccc(OCC(O)CN2CCN(c3ccccc3)CC2)cc1` (stereo unspecified) was run?
The Potency was inconclusive [activator, partial curve, poor fit].

Which Potency does the source give for `O=C(c1cccs1)N1CCN(C/C=C/c2ccccc2)CC1` here?
Its Potency is inconclusive [activator, partial curve, poor fit].

How did the Potency turn out when `COc1ccccc1C(=O)N1CCC(N2CCN(c3ccccc3)CC2)CC1` was run?
The Potency was inconclusive [activator, full curve].

With `CN(Cc1ccccc1)CC(O)COc1ccc(CNCCOc2cccnc2)cc1` (stereo unspecified) as the molecule, how does the Potency read?
The Potency was “inactive”.

`COc1ccc(CC2(CO)CCN(Cc3cc4ccccc4o3)CC2)cc1` was tested. Which Potency did it give?
The Potency was active: 11.2 µM.

How did the Potency turn out when `COc1ccc(C(CCN2CCN(c3ccccc3)CC2)c2c(OC)cc(OC)c3c(-c4ccccc4)cc(=O)oc23)cc1` (stereo unspecified) was run?
The Potency was inconclusive [activator, full curve, poor fit].

Which Potency does the source give for `CCNc1nc(C#N)nc2c1ncn2-c1cc(F)cc(F)c1` here?
The Potency was “inactive”.

How did the Potency turn out when `COC(=O)[C@@H](NC(=O)Nc1ccc(S(N)(=O)=O)cc1)C(C)C` was run?
Its Potency is “inactive”.

With `CCOc1ccc(N/C(N)=N/c2nc(C)cc(C)n2)cc1` as the molecule, how does the Potency read?
Its Potency is inconclusive [activator, single point].

For `O=C(NCc1cccnc1)C(=O)NCC(c1ccco1)N1CCN(c2ccccc2)CC1` (stereo unspecified), which Potency is on record?
The Potency was inconclusive [activator, full curve].

`O=C(CN1CCN(c2ccc(O)cc2)CC1)Nc1cc(S(=O)(=O)N2CCCC2)ccc1Cl` was tested. Which Potency did it give?
Its Potency is inconclusive [activator, full curve].

Which Potency does the source give for `COc1ccc(C2c3ccc4ccccc4c3Oc3ncn(CCCO)c(=N)c32)cc1OC` (stereo unspecified) here?
Its Potency is “inactive”.

With `CCOc1cc(CN2CCN(C(=O)c3ccco3)CC2)ccc1OC` as the molecule, how does the Potency read?
Its Potency is active: 25.1 µM.

Which Potency does the source give for `CCOC(=O)N1CCC(NC(=O)CCS(=O)(=O)c2ccc3c(c2)CCN3C(=O)CC)CC1` here?
The Potency was inconclusive [activator, full curve].

With `O=S(=O)(Nc1ccc(-c2cn3ccccc3n2)cc1)c1ccccc1` as the molecule, how does the Potency read?
Its Potency is “inactive”.

With `CC1CC(C)CN(CCOc2cccc(Cl)c2Cl)C1` (stereo unspecified) as the molecule, how does the Potency read?
The Potency was inconclusive [activator, full curve].

How did the Potency turn out when `O=C(CN1CCN(c2ccccc2)CC1)Nc1ccc2c(c1)OCCO2` was run?
Its Potency is inconclusive [activator, full curve, poor fit].

With `O=C(NCCN1CCN(c2cccc(Cl)c2)CC1)c1ccc(CSc2nc3ccncc3[nH]2)cc1` as the molecule, how does the Potency read?
Its Potency is inconclusive [activator, single point].

`O=C1C2CCCN2C(=O)N1CCCCN1CCN(c2ccccc2)CC1` (stereo unspecified) was tested. Which Potency did it give?
The Potency was inconclusive [activator, full curve, poor fit].

How did the Potency turn out when `COc1ccc2ccccc2c1CN1CCN(C(=O)c2ccco2)CC1` was run?
Its Potency is active: 25.1 µM.

Which Potency does the source give for `Brc1cccc(CN2CCN(c3ncccn3)CC2)c1` here?
The Potency was active: 11.2 µM.

For `COC(=O)C1CCN(Cc2ccc(C)cc2)CC1`, which Potency is on record?
Its Potency is inconclusive [activator, full curve, poor fit].

`CCOC(=O)[C@@H]1[C@H]2COc3ccc(Br)cc3[C@@H]2N2C(=O)N(c3ccc(Br)cc3)C(=O)[C@]12C` was tested. Which Potency did it give?
Its Potency is “inactive”.

How did the Potency turn out when `CC(=O)c1ccc(OCC(O)CN2CCN(c3ccccn3)CC2)cc1` (stereo unspecified) was run?
The Potency was active: 3.98 µM.

Which Potency does the source give for `N#Cc1ccc(S(=O)(=O)N2CCC(C(=O)N3CCN(Cc4ccc5c(c4)OCO5)CC3)CC2)cc1` here?
The Potency was inconclusive [activator, partial curve].

For `COC(=O)C1CCN(CCCOc2ccc(CN3CCN(c4ccc([N+](=O)[O-])cc4)CC3)cc2)CC1`, which Potency is on record?
Its Potency is inconclusive [activator, full curve, poor fit].

`CCOC(=O)N1CCc2c(sc(N)c2C#N)C1` was tested. Which Potency did it give?
The Potency was inconclusive [activator, partial curve].
